{"source": "PubChem BioAssay AID1224903", "about": "(Bradner/Qi Labs at DFCI, 2016)", "note": "This is one part of the list. The main result of the screen is listed elsewhere. These columns were measured beside it and carry no call. Most of these compounds were active or inconclusive in the main read-out, so they are no random draw.", "data": [{"target": "Chromobox protein homolog 7 (Homo sapiens) (UniProt O95931)", "sequence (O95931 whole entry, looked up)": "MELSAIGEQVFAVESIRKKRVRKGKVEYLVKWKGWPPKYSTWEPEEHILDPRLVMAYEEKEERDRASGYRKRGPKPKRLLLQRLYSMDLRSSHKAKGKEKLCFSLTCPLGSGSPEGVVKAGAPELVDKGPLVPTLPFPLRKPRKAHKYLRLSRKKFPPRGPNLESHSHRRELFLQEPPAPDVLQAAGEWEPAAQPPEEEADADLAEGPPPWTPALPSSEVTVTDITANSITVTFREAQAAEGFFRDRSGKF", "experiment": "blockers of CBX7 binding to H3K27me3 peptide – biochemical, AlphaScreen, primary screen (AID 1224903)", "details": "AlphaScreen His6-CBX7 / biotin-H3K27me3 peptide binding; measured here: z-score of CBX7 signal; stronger effect = lower value", "values": [{"smiles": "CC1N=C(c2ccccc2F)c2cc(Cl)ccc2N(CC(=O)Nc2ccc(N(C)C)cc2)C1=O", "note": "(centres undefined)", "z-score": -13.2}, {"smiles": "COc1ccc2[nH]c(C)c(CCNCc3cccc(C(F)(F)F)c3)c2c1", "z-score": -0.795}, {"smiles": "COc1ccc2[nH]c(C)c(CCNCc3nc[nH]c3C)c2c1", "z-score": -2.02}, {"smiles": "COc1ccc2[nH]c(C)c(CCNCc3ccc(C#N)cc3)c2c1", "z-score": -0.74}, {"smiles": "CNc1ccc(C)cc1C(=O)c1cccc(Br)c1", "z-score": -12.3}, {"smiles": "COc1ccc2[nH]c(C)c(CCNCc3ccc(OC(F)(F)F)cc3)c2c1", "z-score": -10.6}, {"smiles": "Cc1ccccc1-n1nnnc1C1(NCCc2c(C)[nH]c3ccccc23)CCCCC1", "z-score": -9.26}, {"smiles": "CCCCCC(C)C(C)c1cc(OC)c2c(c1)OC(C)(C)C1=C2CN(CC(N)=O)CC1", "note": "(centres undefined)", "z-score": -1.72}, {"smiles": "COc1ccc(F)c(CNCCc2c(C)[nH]c3ccc(OC)cc23)c1", "z-score": -0.624}, {"smiles": "CN(C)c1ccc(C2SCC(=O)Nc3c2c(-c2ccccc2)nn3-c2ccccc2)cc1", "note": "(centres undefined)", "z-score": -6.66}, {"smiles": "COc1ccc(CCNCc2ccccn2)cc1OC", "z-score": -12.3}, {"smiles": "CCOc1ccccc1CN(CCc1ccc2c(c1)OCO2)Cc1ccc(F)c(F)c1", "z-score": -4.15}, {"smiles": "COc1ccc2[nH]c(C)c(CCNCc3ncc[nH]3)c2c1", "z-score": -0.82}, {"smiles": "CCOC(=O)C1(c2ccccc2)CCN(CC(=O)Nc2cccc(Cl)c2)CC1", "z-score": -7.29}]}]}
